# Lines with a small IC50 respond at low doses; a fit beyond the top or the lowest dose is shown as a bound at that dose. The AUC spans the tested range (256-fold, ending at the top dose) of the same fit; it is 1 without any effect and falls as sensitivity rises. For some of these results: An inferred top dose was calculated from the reported fits. For some of these results: Drugs with an entry number were screened twice under separate entries, and the two screens often disagree.
# Columns and labels:
# Experiment in all cases: Viability of human cancer cell lines after 72 h of drug (GDSC screen)
# [1] = compound: CCn1c(-c2nonc2N)nc2c(C#CC(C)(C)O)ncc(OC[C@H]3CCCNC3)c21 [GSK690693]; details: top dose 10.24 µM; top dose inferred
# Procedure: (§1)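 Human cancer cell lines in 384-well plates, medium with 10% serum, drug for 72 h over a 256-fold dose range (nine 2-fold or five 4-fold steps up to the top dose). Adherent lines were fixed and stained with the nucleic acid dye Syto60, suspension lines read with resazurin; signal relative to control wells, capped at 0 and 100%. One two-parameter sigmoid per drug and line, fitted in a mixed model over all curves with the slope shared within a line.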
# [2] = compound: COc1cc2c(NC3CCN(C(C)C)CC3)nc(C3CCCCC3)nc2cc1OCCCN1CCCC1 [UNC0638]
# Procedure: as §1
# [3] = compound: COc1ccc(N(C(=O)Oc2c(C)cccc2C)c2ccnc(Nc3ccc(N4CCN(C)CC4)cc3)n2)c(OC)c1 [WH-4-023]; details: top dose 5.12 µM; top dose inferred
# Procedure: as §1
# [4] = compound: CC1=C(/C=C/C(C)=C/C=C/C(C)=C/C(=O)O)C(C)(C)CCC1 [Tretinoin]; details: top dose 10 µM; top dose inferred
# Procedure: as §1
# [5] = compound: O=C(NCCCNc1nc(Nc2cccc(NC(=O)N3CCCC3)c2)ncc1I)c1cccs1 [BX-795]; details: top dose 5 µM; top dose inferred
# Procedure: as §1
# [6] = compound: Oc1cccc(-c2nc(N3CCOCC3)c3oc4ncccc4c3n2)c1 [PI-103]; details: top dose 10.24 µM
# Procedure: as §1
# [7] = compound: Cc1cccc(-c2[nH]c(C(C)(C)C)nc2-c2ccc3c(c2)OCO3)n1 [SB-505124]; details: top dose 10 µM; top dose inferred
# Procedure: as §1
# [8] = top dose 20 µM, screen: GDSC drug entry 1236, top dose inferred
# [9] = top dose 40 µM, screen: GDSC drug entry 245
Cell Line,AUC [1],IC50 [1],"AUC [2, 8]","IC50 [2, 8]","AUC [2, 9]","IC50 [2, 9]",AUC [3],IC50 [3],AUC [4],IC50 [4],AUC [5],IC50 [5],AUC [6],IC50 [6],AUC [7],IC50 [7]
"TE-1 (oesophagus, adherent)",0.982,> 10.2 µM,0.816,15 µM,0.924,> 40 µM,0.792,3.03 µM,0.972,> 10 µM,0.908,> 5 µM,0.859,> 10.2 µM,0.968,> 10 µM
"TE-5 (oesophagus, adherent)",0.927,> 10.2 µM,0.897,> 20 µM,0.951,> 40 µM,0.97,> 5.12 µM,0.923,> 10 µM,0.938,> 5 µM,0.983,> 10.2 µM,0.955,> 10 µM
"TE-6 (oesophagus, adherent)",0.935,> 10.2 µM,0.963,> 20 µM,0.984,> 40 µM,0.912,> 5.12 µM,0.969,> 10 µM,0.895,> 5 µM,0.794,5.66 µM,0.985,> 10 µM
"TE-8 (oesophagus, adherent)",0.981,> 10.2 µM,0.982,> 20 µM,0.938,> 40 µM,0.429,0.202 µM,0.972,> 10 µM,0.78,2.2 µM,0.852,8.83 µM,0.888,> 10 µM
"TE-9 (oesophagus, adherent)",0.985,> 10.2 µM,0.905,> 20 µM,0.98,> 40 µM,0.782,2.22 µM,0.976,> 10 µM,0.862,4.56 µM,0.972,> 10.2 µM,0.974,> 10 µM
"TE-11 (oesophagus, adherent)",0.989,> 10.2 µM,0.989,> 20 µM,0.985,> 40 µM,0.953,> 5.12 µM,0.949,> 10 µM,0.768,1.71 µM,0.99,> 10.2 µM,0.96,> 10 µM
"TE-12 (oesophagus, suspension)",0.943,> 10.2 µM,0.926,> 20 µM,0.924,> 40 µM,0.527,0.384 µM,0.906,> 10 µM,0.93,> 5 µM,0.452,0.461 µM,0.971,> 10 µM
"TE-15 (oesophagus, suspension)",0.872,> 10.2 µM,0.982,> 20 µM,0.819,26.6 µM,0.377,0.14 µM,0.966,> 10 µM,0.875,> 5 µM,0.361,0.25 µM,0.981,> 10 µM
"TGBC1TKB (biliary tract, adherent)",0.987,> 10.2 µM,0.988,> 20 µM,0.88,> 40 µM,0.932,> 5.12 µM,0.985,> 10 µM,0.948,> 5 µM,0.989,> 10.2 µM,0.968,> 10 µM
"TGW (neuroblastoma, adherent)",0.991,> 10.2 µM,0.96,> 20 µM,0.861,26.4 µM,0.956,> 5.12 µM,0.804,4.19 µM,0.766,1.6 µM,0.649,1.55 µM,0.977,> 10 µM

# Reference: the supplement of paper PMC4967469
